# Source: US20150266977A1 (AbbVie / Abbott, published 2015)
# T1: recombinant human sclerostin (human, UniProt Q9BQB4 24-213)
# T1 construct: biotinylated in the ELISAs; also called hu sclerostin; hu scl
# T1 sequence: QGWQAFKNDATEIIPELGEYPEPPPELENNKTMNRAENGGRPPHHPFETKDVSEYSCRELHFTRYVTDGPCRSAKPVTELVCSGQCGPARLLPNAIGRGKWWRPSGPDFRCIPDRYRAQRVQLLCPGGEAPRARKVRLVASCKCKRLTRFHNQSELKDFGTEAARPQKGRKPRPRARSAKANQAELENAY
# Tests used:
# [1] = molecular target: Rhesus/cynoTNFa (Rhesus/cyno); experiment: cell-based or functional assay
# [2] = molecular target: T1, recombinant human sclerostin; experiment: SPR
# Description: (§1) The binding of antibodies or anti-sclerostin-TNF DVD to purified recombinant human, cynomolgus monkey (cyno), rat and mouse sclerostin and TNFα was determined by surface plasmon resonance-based measurements with a Biacore T100 or T200 instruments (GE Healthcare Life Sciences, Piscataway, N.J., USA) using running HBS-EP+ (10 mM HEPES [pH 7.4], 150 mM NaCl, 3 mM EDTA, and 0.005% surfactant P20) containing additional 150 mM NaCl, and/or 10 mg/ml carboxymethyl dextran, 0.1 mg/ml BSA at 25° C. All chemicals were obtained from GE Healthcare Life Sciences, Piscataway, N.J., USA or otherwise from a different source as described in the text. Approximately 10,000 RU (or 3000 RU when CM3 chip was used) of goat anti-mouse or anti-human IgG (Fcγ) fragment specific polyclonal antibody (Pierce Biotechnology Inc, Rockford, Ill.) diluted in 10 mM sodium acetate (pH 4.5) was directly immobilized across a CM5 (or CM3) research grade biosensor chip using a standard amine coupling kit according to manufacturer's instructions and procedures at 15 μg/ml. Unreacted moieties on the biosensor surface were blocked with ethanolamine. Modified carboxymethyl dextran surface in flowcells 2, 3 and 4 were used as a reaction surface. Modified carboxymethyl dextran in flow cell 1 was used as the reference surface. Biaevaluation T100 software version 2.0.2, GE Healthcare Life Sciences was used to simultaneously fit association and dissociation phases of all injections (using 1:1 fit analysis with local Rmax). Purified antibodies were diluted in running buffer for capture across goat anti-mouse or anti-human IgG specific reaction surfaces. Antibodies to be captured as a ligand (1 μg/ml) were injected over reaction matrices at a flow rate of 10 μl/minute. The association and dissociation rate constants, kon (unit M-1 s-1) and koff (unit s-1) were determined under a continuous flow rate of 50 μl/minute. […] At the end of each cycle the surfaces were regenerated with 10 s injection of 50 mM NaOH or/and by 10 s injection of 10 mM Glycine pH1.5 at a flow rate of 100 μl/min.
# [3] = molecular target: T2, recombinant cynomolgus monkey sclerostin (cynomolgus monkey); experiment: SPR
# T2 construct: also called cyno sclerostin; Cyno sclerostin
# Description: as §1
L929 TNF neutralization IC50 [1] [nM],Kd [2] [nM],koff [2] [s⁻¹],kon [2] [M⁻¹ s⁻¹],Kd [3] [nM],koff [3] [s⁻¹],kon [3] [M⁻¹ s⁻¹],Binder
0.006,1.3,4.8e-05,37000,0.25,1.2e-05,46000,"DVD2630 (bispecific antibody, human IgG1, kappa, lambda, DVD-Ig: outer AB436, inner MSL10-AM3.2) heavy: EVQLVESGGGLVQPGGSLRLSCAASGFTFSNYGVTWVRQAPGKGLEWVSMIWADGSTHYASSVKGRFTISRDNSKNTLYLQMNSLRAEDTAVYYCAREWQHGPVAYWGQGTLVTVSSASTKGPEVQLVESGGGLVQPGRSLRLSCAASGFTFDDYALHWVRQAPGKGLEWVSGIGWDEDMIDYADSVKGRFTISRDNAKNSLYLQMNSLRVEDTALYYCAGNNRGYGGLDVWGQGTTVTVSSASTKGPSVFPLAPSSKSTSGGTAALGCLVKDYFPEPVTVSWNSGALTSGVHTFPAVLQSSGLYSLSSVVTVPSSSLGTQTYICNVNHKPSNTKVDKKV[left out - human IgG1 Fc with changes] light: DIQMTQSPSSLSASVGDRVTITCRASQLVSSAVAWYQQKPGKAPKLLIYWASARHTGVPSRFSGSGSGTDFTLTISSLQPEDFATYYCQQHYKTPFTFGQGTKLEIKRTVAAPSVFIFPPQSVLTQPPSASGTPGQRVTISCSGSWSNIGSNTVNWYQQLPGTAPKLLIYNNNQRPSGVPDRFSGSKSGTSASLAISGLQSEDEADYYCAAWDDSLSGEYVFGGGTKLTVLGQPKAAPSVTLFPPSSEELQANKATLVCLISDFYPGAVTVAWKADSSPVKAGVETTTPSKQSNNKYAASSYLSLTPEQWKSHRSYSCQVTHEGSTVEKTVAPTECS"
0.0285,< 0.013,< 1e-06,75000,< 0.01,< 1e-06,99000,"DVD2623 (bispecific antibody, human IgG1, lambda, DVD-Ig: outer AB436, inner MSL10-AM2.2) heavy: EVQLVESGGGLVQPGGSLRLSCAASGFTFSNYGVTWVRQAPGKGLEWVSMIWADGSTHYASSVKGRFTISRDNSKNTLYLQMNSLRAEDTAVYYCAREWQHGPVAYWGQGTLVTVSSASTKGPEVQLVESGGGLVQPGRSLRLSCAASGFTFDDYALHWVRQAPGKGLEWVSGIGWEDDMIDYADSVKGRFTISRDNAKNSLYLQMNSLRVEDTALYYCAGNSRGYGGLDVWGQGTTVTVSSASTKGPSVFPLAPSSKSTSGGTAALGCLVKDYFPEPVTVSWNSGALTSGVHTFPAVLQSSGLYSLSSVVTVPSSSLGTQTYICNVNHKPSNTKVDKKV[left out - human IgG1 Fc with changes] light: DIQMTQSPSSLSASVGDRVTITCRASQLVSSAVAWYQQKPGKAPKLLIYWASARHTGVPSRFSGSGSGTDFTLTISSLQPEDFATYYCQQHYKTPFTFGQGTKLEIKRTVAAPQSVLTQPPSASGTPGQRVTISCSGSSSNIGGNTVNWYQQLPGTAPKLLIYSNNQRPSGVPDRFSGSKSGTSASLAISGLQSEDEADYYCAAWDDSLEGSYVFGGGTKLTVLGQPKAAPSVTLFPPSSEELQANKATLVCLISDFYPGAVTVAWKADSSPVKAGVETTTPSKQSNNKYAASSYLSLTPEQWKSHRSYSCQVTHEGSTVEKTVAPTECS"
0.009,0.96,4.3e-05,45000,2.6,0.00014,54000,"DVD2627 (bispecific antibody, human IgG1, lambda, DVD-Ig: outer AB436, inner MSL10-AM3.2) heavy: EVQLVESGGGLVQPGGSLRLSCAASGFTFSNYGVTWVRQAPGKGLEWVSMIWADGSTHYASSVKGRFTISRDNSKNTLYLQMNSLRAEDTAVYYCAREWQHGPVAYWGQGTLVTVSSGGGGSGGGGSEVQLVESGGGLVQPGRSLRLSCAASGFTFDDYALHWVRQAPGKGLEWVSGIGWDEDMIDYADSVKGRFTISRDNAKNSLYLQMNSLRVEDTALYYCAGNNRGYGGLDVWGQGTTVTVSSASTKGPSVFPLAPSSKSTSGGTAALGCLVKDYFPEPVTVSWNSGALTSGVHTFPAVLQSSGLYSLSSVVTVPSSSLGTQTYICNVNHKPSNTKVDKKV[left out - human IgG1 Fc with changes] light: DIQMTQSPSSLSASVGDRVTITCRASQLVSSAVAWYQQKPGKAPKLLIYWASARHTGVPSRFSGSGSGTDFTLTISSLQPEDFATYYCQQHYKTPFTFGQGTKLEIKRGGSGGGGSGQSVLTQPPSASGTPGQRVTISCSGSWSNIGSNTVNWYQQLPGTAPKLLIYNNNQRPSGVPDRFSGSKSGTSASLAISGLQSEDEADYYCAAWDDSLSGEYVFGGGTKLTVLGQPKAAPSVTLFPPSSEELQANKATLVCLISDFYPGAVTVAWKADSSPVKAGVETTTPSKQSNNKYAASSYLSLTPEQWKSHRSYSCQVTHEGSTVEKTVAPTECS"
